Laboratory results taken from article PMC7688343, “GDF6-CD99 Signaling Regulates Src and Ewing Sarcoma Growth” (Cell reports, 2020).
No constants are given. Whether binding was seen depends on the method and setting. Binding seen in cells or lysates may run through a third protein. Some binding calls cover weakened binding; strength is not graded here. Tags and fused reporters may be left off the sequences shown.

The chains behind the UniProt entries cited, without tags or fusion partners.
UniProt P41240: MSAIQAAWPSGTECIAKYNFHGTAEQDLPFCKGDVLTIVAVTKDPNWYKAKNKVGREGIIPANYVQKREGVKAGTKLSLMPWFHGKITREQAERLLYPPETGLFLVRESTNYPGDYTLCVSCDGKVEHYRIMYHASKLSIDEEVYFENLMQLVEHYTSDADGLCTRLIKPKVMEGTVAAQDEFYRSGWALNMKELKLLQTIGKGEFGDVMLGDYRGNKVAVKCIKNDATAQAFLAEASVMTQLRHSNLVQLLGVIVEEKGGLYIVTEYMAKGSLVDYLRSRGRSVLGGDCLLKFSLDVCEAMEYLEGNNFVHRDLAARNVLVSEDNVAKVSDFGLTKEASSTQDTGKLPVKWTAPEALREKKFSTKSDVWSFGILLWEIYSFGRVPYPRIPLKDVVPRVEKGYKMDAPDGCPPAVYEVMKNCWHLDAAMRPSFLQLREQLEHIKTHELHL

Assays:
GFP-YQKKK (human) = target: T1, GFP-YQKKK (human); experiment: co-IP; GFP fusions of CD99 intracellular fragments transfected in 293T cells; anti-GFP immunoprecipitation, anti-CSK immunoblot of endogenous CSK
T1 sequence: YQKKK

GFP-YQKKKLCF (human) = target: T2, GFP-YQKKKLCF (human); experiment: as above
T2 sequence: YQKKKLCF

[1] = target: T3, GFP-human CD99 intracellular domain (148-185) (human) (UniProt P14209); experiment: as above
T3 sequence: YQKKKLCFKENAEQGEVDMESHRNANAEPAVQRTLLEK

[2] = target: T4, GFP-human CD99 intracellular domain lacking the YQKKKLCF sequence (human) (UniProt P14209); experiment: as above
T4 sequence: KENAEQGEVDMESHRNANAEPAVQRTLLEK

[3] = target: T5, C-terminally FLAG-tagged human CD99 (human) (UniProt P14209); experiment: co-IP; C-terminally FLAG-tagged human CD99, mouse CD99 or human CD99L2 transfected in 293T cells; anti-FLAG immunoprecipitation, anti-CSK immunoblot of endogenous CSK
T5 sequence: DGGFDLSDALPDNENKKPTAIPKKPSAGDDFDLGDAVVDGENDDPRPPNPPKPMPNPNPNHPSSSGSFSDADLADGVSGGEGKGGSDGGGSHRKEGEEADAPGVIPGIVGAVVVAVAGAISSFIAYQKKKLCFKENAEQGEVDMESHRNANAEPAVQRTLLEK

[4] = target: T6, C-terminally FLAG-tagged human CD99L2 (human) (UniProt Q8TCZ2); experiment: as above
T6 sequence: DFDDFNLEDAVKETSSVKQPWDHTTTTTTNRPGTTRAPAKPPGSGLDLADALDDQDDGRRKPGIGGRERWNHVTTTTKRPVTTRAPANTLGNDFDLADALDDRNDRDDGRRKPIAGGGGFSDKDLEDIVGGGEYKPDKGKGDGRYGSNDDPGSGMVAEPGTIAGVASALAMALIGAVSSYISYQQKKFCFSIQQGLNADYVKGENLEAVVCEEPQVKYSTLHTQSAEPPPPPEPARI

[5] = target: T7, C-terminally FLAG-tagged mouse CD99 (mouse) (UniProt Q8VCN6); experiment: as above
T7 sequence: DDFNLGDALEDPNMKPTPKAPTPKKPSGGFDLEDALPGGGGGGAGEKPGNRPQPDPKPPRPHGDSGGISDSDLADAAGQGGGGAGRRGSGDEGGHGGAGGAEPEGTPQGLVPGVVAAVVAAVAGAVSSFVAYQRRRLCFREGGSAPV

Question: “endogenous CSK (293T cells) (from UniProt P41240 1-450) (enzyme)” was tested. Which binding (GFP-YQKKK (human)) did it give?
Answer: The binding was “binds”.

Question: And the binding (GFP-YQKKKLCF (human))?
Answer: The binding was “binds”.

Question: And the binding [1]?
Answer: Its binding is “binds”.

Question: What about the binding [2] of the same substance?
Answer: The binding was “no binding”.

Question: And the binding [3]?
Answer: Its binding is “binds”.

Question: And the binding [4]?
Answer: The binding was “binds”.

Question: What about the binding [5] of the same substance?
Answer: Its binding is “binds”.
